Measured values published in patent US20230250147A1 (Sanofi, published 2023).

T1: Mouse GLP-1R (mouse, UniProt O35659 22-463)
T1 sequence (looked up): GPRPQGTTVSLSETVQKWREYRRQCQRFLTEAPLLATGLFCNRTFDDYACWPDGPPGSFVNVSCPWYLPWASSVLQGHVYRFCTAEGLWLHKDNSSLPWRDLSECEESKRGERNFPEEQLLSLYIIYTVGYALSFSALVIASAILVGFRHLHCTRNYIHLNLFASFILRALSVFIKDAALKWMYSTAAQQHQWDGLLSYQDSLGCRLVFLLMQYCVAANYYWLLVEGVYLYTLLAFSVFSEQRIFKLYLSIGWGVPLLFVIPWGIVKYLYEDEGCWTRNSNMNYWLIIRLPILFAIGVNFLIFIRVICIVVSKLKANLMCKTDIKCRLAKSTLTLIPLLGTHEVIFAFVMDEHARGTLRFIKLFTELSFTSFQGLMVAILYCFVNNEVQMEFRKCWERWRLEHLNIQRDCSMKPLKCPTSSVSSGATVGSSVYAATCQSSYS

B1: GLP-1RA/FGF21 Fc fusion protein SEQ ID NO: 217 (Fc fusion)
chain: YSEGTFTSDLSILCEKRAVHEFIEWLIAGGPSSGKPPPKPGCGSGGGGGSGGGGSGGGGGA[… human IgG1 Fc with changes …]GGGSGSAHPIPDSSPLLQFGGQVRQRYLYTDDACQTEAHLEIREDGTVGGAADQSPESLLQLKALKPGVIQILGVKTSRFLCQRPDGALYGSLHFDPEACSFRELLLEDGYNVYQSEAHGLPLHLPGCKSPHRDPAPRGPARFLPLPGLPPAPPEPPGILAPQPPDVGSSDPLSMVYPSQGRSPSYAS
B2: GLP-1RA/FGF21 Fc fusion protein SEQ ID NO: 163 (Fc fusion)
chain: HGEGTFTSDKSKQLAEEAVQLFIEWLLAGGPSKEIISGGGGGGGSGGGGSGGGGSA[… human IgG4 Fc with changes …]GGGSGSAHPIPDSSPLLQFGGQVRQRYLYTDDACQTEAHLEIREDGTVGGAADQSPESLLQLKALKPGVIQILGVKTSRFLCQRPDGALYGSLHFDPEACSFRELLLEDGYNVYQSEAHGLPLHLPGCKSPHRDPAPRGPARFLPLPGLPPAPPEPPGILAPQPPDVGSSDPLSMVGSQGRSPSYAS
B3: GLP-1RA/FGF21 Fc fusion protein SEQ ID NO: 176 (Fc fusion)
chain: HGEGTFTSDKSKQLAERAVQLFIEWLLAGGPKKIRYSGGGGGGGSGGGGSGGGGSA[… human IgG4 Fc with changes …]GGGSGSAHPIPDSSPLLQFGGQVRQRYLYTDDACQTEAHLEIREDGTVGGAADQSPESLLQLKALKPGVIQILGVKTSRFLCQRPDGALYGSLHFDPEACSFRELLLEDGYNVYQSEAHGLPLHLPGCKSPHRDPAPRGPARFLPLPGLPPAPPEPPGILAPQPPDVGSSDPLSMVGSQGRSPSYAS
B4: GLP-1RA/FGF21 Fc fusion protein SEQ ID NO: 175 (Fc fusion)
chain: HGEGTFTSDKSKQLAKEAVQLFIEWLLAGGPKKIRYSGGGGGGGSGGGGSGGGGSA[… human IgG4 Fc with changes …]GGGSGSAHPIPDSSPLLQFGGQVRQRYLYTDDACQTEAHLEIREDGTVGGAADQSPESLLQLKALKPGVIQILGVKTSRFLCQRPDGALYGSLHFDPEACSFRELLLEDGYNVYQSEAHGLPLHLPGCKSPHRDPAPRGPARFLPLPGLPPAPPEPPGILAPQPPDVGSSDPLSMVGSQGRSPSYAS
B5: GLP-1RA/FGF21 Fc fusion protein SEQ ID NO: 180 (Fc fusion)
chain: HGEGTFTSDKSKQLAERLVQLFIEWLLAGGPKKIRYSGGGGGGGSGGGGSGGGGSA[… human IgG4 Fc with changes …]GGGSGSAHPIPDSSPLLQFGGQVRQRYLYTDDACQTEAHLEIREDGTVGGAADQSPESLLQLKALKPGVIQILGVKTSRFLCQRPDGALYGSLHFDPEACSFRELLLEDGYNVYQSEAHGLPLHLPGCKSPHRDPAPRGPARFLPLPGLPPAPPEPPGILAPQPPDVGSSDPLSMVGSQGRSPSYAS
B6: GLP-1RA/FGF21 Fc fusion protein SEQ ID NO: 177 (Fc fusion)
chain: HGEGTFTSDKSKQLAKRAVQLFIEWLLAGGPKKIRYSGGGGGGGSGGGGSGGGGSA[… human IgG4 Fc with changes …]GGGSGSAHPIPDSSPLLQFGGQVRQRYLYTDDACQTEAHLEIREDGTVGGAADQSPESLLQLKALKPGVIQILGVKTSRFLCQRPDGALYGSLHFDPEACSFRELLLEDGYNVYQSEAHGLPLHLPGCKSPHRDPAPRGPARFLPLPGLPPAPPEPPGILAPQPPDVGSSDPLSMVGSQGRSPSYAS
B7: GLP-1RA/FGF21 Fc fusion protein SEQ ID NO: 56 (Fc fusion)
chain: AHGEGTFTSDKSIQLEKEAVRLFIEWLLAGGHPSGKPPPKGGGGGGGSGGGGSGGGGSA[… human IgG4 Fc with changes …]GGGSGSAHPIPDSSPLLQFGGQVRQRYLYTDDACQTEAHLEIREDGTVGGAADQSPESLLQLKALKPGVIQILGVKTSRFLCQRPDGALYGSLHFDPEACSFRELLLEDGYNVYQSEAHGLPLHLPGCKSPHRDPAPRGPARFLPLPGLPPAPPEPPGILAPQPPDVGSSDPLSMVGSQGRSPSYAS
B8: GLP-1RA/FGF21 Fc fusion protein SEQ ID NO: 219 (Fc fusion)
chain: GHGEGTFTSDKSKQLEEEAVRLFIEWLKAGGGGGGGGGSGGGGSGGGGSA[… human IgG1 Fc with changes …]GGGSGSAHPIPDSSPLLQFGGQVRQRYLYTDDACQTEAHLEIREDGTVGGAADQSPESLLQLKALKPGVIQILGVKTSRFLCQRPDGALYGSLHFDPEACSFRELLLEDGYNVYQSEAHGLPLHLPGCKSPHRDPAPRGPARFLPLPGLPPAPPEPPGILAPQPPDVGSSDPLSMVYPSQGRSPSYAS
B9: GLP-1RA/FGF21 Fc fusion protein SEQ ID NO: 143 (Fc fusion)
chain: HGEGTFTSDKSQLLEKRLAHLFIEWLLKGGHSKGKPPPKGGGGGGGSGGGGSGGGGSA[… human IgG4 Fc with changes …]GGGSGSAHPIPDSSPLLQFGGQVRQRYLYTDDACQTEAHLEIREDGTVGGAADQSPESLLQLKALKPGVIQILGVKTSRFLCQRPDGALYGSLHFDPEACSFRELLLEDGYNVYQSEAHGLPLHLPGCKSPHRDPAPRGPARFLPLPGLPPAPPEPPGILAPQPPDVGSSDPLSMVGSQGRSPSYAS
B10: GLP-1RA/FGF21 Fc fusion protein SEQ ID NO: 146 (Fc fusion)
chain: HGEGTFTSDKSQLLEKRLAHLFIEWLLAGGHKKGKPPPKGGGGGGGSGGGGSGGGGSA[… human IgG4 Fc with changes …]GGGSGSAHPIPDSSPLLQFGGQVRQRYLYTDDACQTEAHLEIREDGTVGGAADQSPESLLQLKALKPGVIQILGVKTSRFLCQRPDGALYGSLHFDPEACSFRELLLEDGYNVYQSEAHGLPLHLPGCKSPHRDPAPRGPARFLPLPGLPPAPPEPPGILAPQPPDVGSSDPLSMVGSQGRSPSYAS
B11: GLP-1RA/FGF21 Fc fusion protein SEQ ID NO: 158 (Fc fusion)
chain: HGEGTFTSDKSQLLEKRLAHLFIEWLIKGGHSKGRPPPKGGGGGGGSGGGGSGGGGSA[… human IgG4 Fc with changes …]GGGSGSAHPIPDSSPLLQFGGQVRQRYLYTDDACQTEAHLEIREDGTVGGAADQSPESLLQLKALKPGVIQILGVKTSRFLCQRPDGALYGSLHFDPEACSFRELLLEDGYNVYQSEAHGLPLHLPGCKSPHRDPAPRGPARFLPLPGLPPAPPEPPGILAPQPPDVGSSDPLSMVGSQGRSPSYAS
B12: GLP-1RA/FGF21 Fc fusion protein SEQ ID NO: 169 (Fc fusion)
chain: HGEGTFTSDLSKQLAKRLVREFIEWLIEGGHSSGKPPPKGGGGGGGSGGGGSGGGGSA[… human IgG4 Fc with changes …]GGGSGSAHPIPDSSPLLQFGGQVRQRYLYTDDACQTEAHLEIREDGTVGGAADQSPESLLQLKALKPGVIQILGVKTSRFLCQRPDGALYGSLHFDPEACSFRELLLEDGYNVYQSEAHGLPLHLPGCKSPHRDPAPRGPARFLPLPGLPPAPPEPPGILAPQPPDVGSSDPLSMVGSQGRSPSYAS
B13: GLP-1RA/FGF21 Fc fusion protein SEQ ID NO: 157 (Fc fusion)
chain: HGEGTFTSDKSQLLEKRLAHLFIEWLIAGGPSKGRPPPKGGGGGGGSGGGGSGGGGSA[… human IgG4 Fc with changes …]GGGSGSAHPIPDSSPLLQFGGQVRQRYLYTDDACQTEAHLEIREDGTVGGAADQSPESLLQLKALKPGVIQILGVKTSRFLCQRPDGALYGSLHFDPEACSFRELLLEDGYNVYQSEAHGLPLHLPGCKSPHRDPAPRGPARFLPLPGLPPAPPEPPGILAPQPPDVGSSDPLSMVGSQGRSPSYAS
B14: GLP-1RA/FGF21 Fc fusion protein SEQ ID NO: 145 (Fc fusion)
chain: HGEGTFTSDKSQLLEKRLAHLFIEWLIKGGHSSIRPPPKGGGGGGGSGGGGSGGGGSA[… human IgG4 Fc with changes …]GGGSGSAHPIPDSSPLLQFGGQVRQRYLYTDDACQTEAHLEIREDGTVGGAADQSPESLLQLKALKPGVIQILGVKTSRFLCQRPDGALYGSLHFDPEACSFRELLLEDGYNVYQSEAHGLPLHLPGCKSPHRDPAPRGPARFLPLPGLPPAPPEPPGILAPQPPDVGSSDPLSMVGSQGRSPSYAS
B15: GLP-1RA/FGF21 Fc fusion protein SEQ ID NO: 182 (Fc fusion)
chain: HGEGTFTSDKSKQLAERLVRLFIEWLIAGGHSSGKPPPKGGGGGGGSGGGGSGGGGSA[… human IgG4 Fc with changes …]GGGSGSAHPIPDSSPLLQFGGQVRQRYLYTDDACQTEAHLEIREDGTVGGAADQSPESLLQLKALKPGVIQILGVKTSRFLCQRPDGALYGSLHFDPEACSFRELLLEDGYNVYQSEAHGLPLHLPGCKSPHRDPAPRGPARFLPLPGLPPAPPEPPGILAPQPPDVGSSDPLSMVGSQGRSPSYAS
B16: GLP-1RA/FGF21 Fc fusion protein SEQ ID NO: 162 (Fc fusion)
chain: HGEGTFTSDKSKQLAKRLAHLFIEWLIAGGHSSGKPPPKGGGGGGGSGGGGSGGGGSA[… human IgG4 Fc with changes …]GGGSGSAHPIPDSSPLLQFGGQVRQRYLYTDDACQTEAHLEIREDGTVGGAADQSPESLLQLKALKPGVIQILGVKTSRFLCQRPDGALYGSLHFDPEACSFRELLLEDGYNVYQSEAHGLPLHLPGCKSPHRDPAPRGPARFLPLPGLPPAPPEPPGILAPQPPDVGSSDPLSMVGSQGRSPSYAS
B17: GLP-1RA/FGF21 Fc fusion protein SEQ ID NO: 151 (Fc fusion)
chain: HGEGTFTSDKSQLLEKRLAHLFIEWLIAGGHSSGRYSPKGGGGGGGSGGGGSGGGGSA[… human IgG4 Fc with changes …]GGGSGSAHPIPDSSPLLQFGGQVRQRYLYTDDACQTEAHLEIREDGTVGGAADQSPESLLQLKALKPGVIQILGVKTSRFLCQRPDGALYGSLHFDPEACSFRELLLEDGYNVYQSEAHGLPLHLPGCKSPHRDPAPRGPARFLPLPGLPPAPPEPPGILAPQPPDVGSSDPLSMVGSQGRSPSYAS
B18: GLP-1RA/FGF21 Fc fusion protein SEQ ID NO: 185 (Fc fusion)
chain: HGEGTFTSDKSKQLAERLAREFIEWLIAGGHSSGKPPPKGGGGGGGSGGGGSGGGGSA[… human IgG4 Fc with changes …]GGGSGSAHPIPDSSPLLQFGGQVRQRYLYTDDACQTEAHLEIREDGTVGGAADQSPESLLQLKALKPGVIQILGVKTSRFLCQRPDGALYGSLHFDPEACSFRELLLEDGYNVYQSEAHGLPLHLPGCKSPHRDPAPRGPARFLPLPGLPPAPPEPPGILAPQPPDVGSSDPLSMVGSQGRSPSYAS

Key:
[1] = target: T1, Mouse GLP-1R; assay: cell-based or functional assay
[2] = target: human glucagon-like peptide-1 (GLP-1) receptor (human, UniProt P43220 24-463); assay: cell-based or functional assay

| Binder | HTRF cAMP EC50 [1] [nM] | HTRF cAMP EC50 [2] [nM] |
| --- | --- | --- |
| B1 | 0.00539 | 0.00762 |
| B2 |  | 0.374 |
| B3 |  | 0.0718 |
| B4 |  | 0.0909 |
| B5 |  | 0.406 |
| B6 |  | 0.0486 |
| B7 | 0.0667 | 0.015 |
| B8 | 0.422 | 0.222 |
| B9 |  | 0.0142 |
| B10 |  | 0.0123 |
| B11 |  | 0.0087 |
| B12 |  | 0.0596 |
| B13 |  | 0.0121 |
| B14 |  | 0.00763 |
| B15 |  | 0.123 |
| B16 |  | 0.27 |
| B17 |  | 0.00866 |
| B18 |  | 0.0138 |
